Results reported in the supplement of paper PMC3334620.
In all, about 33,000 sequences were measured (“E-score (-0.5 to 0.5)”: median about -0.035, highest 2% from about 0.35 on). The list shows a part of the results.

Target: T1, Pdr3 (UniProt P33200)
T1 sequence: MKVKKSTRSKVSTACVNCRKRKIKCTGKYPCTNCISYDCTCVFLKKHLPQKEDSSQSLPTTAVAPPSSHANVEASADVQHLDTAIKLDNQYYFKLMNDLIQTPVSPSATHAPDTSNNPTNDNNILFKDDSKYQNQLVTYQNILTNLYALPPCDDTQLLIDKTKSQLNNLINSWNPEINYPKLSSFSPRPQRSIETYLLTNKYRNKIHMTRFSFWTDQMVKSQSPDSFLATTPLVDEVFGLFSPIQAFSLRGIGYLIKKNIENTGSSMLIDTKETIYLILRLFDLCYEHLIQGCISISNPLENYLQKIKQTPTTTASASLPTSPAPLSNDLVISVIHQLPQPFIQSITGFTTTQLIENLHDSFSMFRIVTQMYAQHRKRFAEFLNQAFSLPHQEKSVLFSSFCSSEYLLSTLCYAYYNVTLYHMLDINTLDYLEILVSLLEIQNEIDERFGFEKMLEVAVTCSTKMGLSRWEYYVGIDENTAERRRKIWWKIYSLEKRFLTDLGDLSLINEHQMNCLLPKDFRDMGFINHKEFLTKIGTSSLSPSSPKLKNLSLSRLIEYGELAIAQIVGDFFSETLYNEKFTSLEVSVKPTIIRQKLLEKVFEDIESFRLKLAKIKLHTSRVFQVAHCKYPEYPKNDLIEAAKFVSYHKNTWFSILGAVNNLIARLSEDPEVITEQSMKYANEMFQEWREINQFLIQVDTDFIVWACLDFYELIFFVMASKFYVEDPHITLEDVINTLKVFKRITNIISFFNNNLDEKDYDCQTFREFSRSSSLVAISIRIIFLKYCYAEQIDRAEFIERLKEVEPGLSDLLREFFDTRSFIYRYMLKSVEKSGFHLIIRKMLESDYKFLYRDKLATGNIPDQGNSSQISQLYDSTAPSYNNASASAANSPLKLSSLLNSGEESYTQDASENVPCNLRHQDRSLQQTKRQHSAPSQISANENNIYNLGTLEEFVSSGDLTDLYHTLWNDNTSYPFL
Assay: PBM E-score (8-mer binding enrichment) (E-score (-0.5 to 0.5)); higher = stronger / more preferred TF binding; most listed sequences are background and not binding sites
Conditions: protein concentration: 200 nM; construct: GST-full length
Method in brief: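 GST-tagged yeast TFs (full-length or DNA-binding domain) were made by PURExpress in vitro transcription/translation and applied at about 100-200 nM to universal all-10-mer Agilent arrays. The arrays were made double-stranded by primer extension, on fresh or once-stripped slides. Bound protein was detected with fluorescent anti-GST, and scans were normalised with masliner. Each ungapped eight-base word, pooled with its reverse complement, received an E-score (modified Wilcoxon-Mann-Whitney statistic) from the Universal PBM Analysis Suite.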

| Sequence | PBM E-score |
| --- | --- |
| CGGGTCAA | 0.387 |
| CATCGTAC | -0.112 |
| GTCGACAC | -0.00728 |
| TACGTAAA | -0.436 |
| AATTATGG | -0.00297 |
| CCAGCCCC | -0.0573 |
| TGGTCAAA | -0.0459 |
| TGTGAACA | -0.0898 |
| AACTAAGG | 0.0237 |
| GGCTTTGA | 0.0647 |
| CGACCCTC | -0.186 |
| AAGGCGTG | -0.267 |
| GACGCCCA | 0.05 |
| AGGCGAAC | -0.114 |
| GAGAAGCA | -0.15 |
| CTAATAAA | -0.0684 |
| AGGCCAAT | -0.0324 |
| CCGTTAGG | 0.0121 |
| AGCTAACA | -0.178 |
| CAATAGAC | 0.0262 |
| ATCCCTAC | 0.0333 |
| GAGAGGGA | -0.279 |
| ACATCCCA | -0.0829 |
| CAAGTCCG | 0.221 |
| AAATATGT | 0.24 |

| Sequence | PBM E-score |
| --- | --- |
| AAAATACT | 0.175 |
| AGGTCTAA | -0.0213 |
| ACATGCCC | -0.0672 |
| CCCGTAGA | -0.144 |
| ACCACGGT | -0.263 |
| ACAATCGC | 0.181 |
| GTCAGCGA | -0.165 |
| AATCAGGG | -0.24 |
| ACGGGACG | 0.295 |
| ATGAATTG | 0.0561 |
| GCACCCCA | 0.0981 |
| ATATTCAG | -0.00991 |
| CCCACCAG | -0.0926 |
| ATGAGTCA | -0.213 |
| GTTGATGA | 0.0587 |
| TATATAAA | -0.0354 |
| ACCTCACC | -0.0307 |
| CATTCTCA | 0.0162 |
| ACTCATGA | -0.108 |
| CACGGCCG | 0.314 |
| GATTTTGA | 0.117 |
| AATTTATG | 0.0637 |
| AGGACGAC | -0.205 |
| CATACGCA | -0.0277 |
| TATAATAA | 0.0926 |

| Sequence | PBM E-score |
| --- | --- |
| AGACCTTA | -0.0346 |
| AGATTACG | 0.0218 |
| TTTCCAAA | -0.165 |
| CCAATGGG | -0.151 |
| CACGTTCC | 0.25 |
| ACCGGTTC | 0.175 |
| CATCTAGC | -0.128 |
| ATGAAGCG | -0.0578 |
| CGCGACGA | 0.0966 |
| CAAGCTAG | -0.291 |
| CAAACACA | -0.149 |
| AGGTCGCC | 0.117 |
| AGAGTAGA | -0.0981 |
| CGAAAATA | 0.081 |
| GAGAGTTA | -0.216 |
| ATCTCTTC | 0.0745 |
| ACTCGCGC | 0.0916 |
| AGATCAGC | 0.226 |
| CCATTACC | 0.0713 |
| AAACTTAT | 0.155 |
| AGGCAAGA | -0.176 |
| TGGGTCAA | -0.108 |
| CTTTATTA | -0.194 |
| CATCCGCA | 0.237 |
| CGACGACG | 0.0887 |

| Sequence | PBM E-score |
| --- | --- |
| GCGAGAAC | 0.0877 |
| TACGGCCA | -0.0624 |
| GCATCCGA | 0.213 |
| AGTCGACC | 0.0168 |
| ATGGGCAG | -0.0782 |
| CCCGAAGA | 0.0276 |
| CCAAACGA | -0.0534 |
| GCCTAGGA | -0.2 |
| CAATTGAG | 0.189 |
| CTGCTTGC | -0.0808 |
| ACACCCCG | 0.156 |
| ACAGCACA | -0.0356 |
| GCCCCGCA | 0.0442 |
| CGGCTTTA | 0.13 |
| ACTTAGCT | -0.244 |
| ATCTGTAA | 0.0238 |
| AACTAACG | 0.0937 |
| ACCTGTCT | -0.123 |
| ACGGAGCT | 0.244 |
| ATTTTCTG | -0.0778 |
| AAGCCCCA | -0.179 |
| ATAACTGC | -0.193 |
| AGCAAGTC | -0.23 |
| ATCTATCG | -0.133 |
| GGACTAAA | 0.0198 |

| Sequence | PBM E-score |
| --- | --- |
| CGATCGGC | 0.111 |
| AAAGTCGC | 0.0957 |
| AATCAGAG | -0.0237 |
| CGGACTGA | 0.222 |
| GTAACACA | 0.0441 |
| AACAGTAG | -0.0739 |
| CGCCCCTA | 0.107 |
| CAAGAGAA | 0.103 |
| ACGACGTC | -0.0975 |
| CGTACTGA | -0.0142 |
| GCGTCACA | -0.149 |
| ACGTCGGC | 0.0854 |
| CCTCCAAA | -0.151 |
| AGTAAGAG | -0.243 |
| CACACCGC | 0.166 |
| AACATAGG | -0.0569 |
| TAAACTGA | -0.0927 |
| GATTCTAA | -0.0897 |
| GTCATTGA | -0.152 |
| AAATCGGA | 0.326 |
| AAGTCCGG | 0.3 |
| ACCGCACA | -0.2 |
| ACCTATTC | -0.175 |
| AAAGGCTA | -0.215 |
| AGCTGACA | -0.0375 |

| Sequence | PBM E-score |
| --- | --- |
| AGCGGCCT | 0.0486 |
| CCGTATTC | 0.178 |
| GCTAAGTA | -0.0542 |
| CCTTTGCA | -0.164 |
| ACAAGGGA | -0.234 |
| ACGCTCGA | -0.116 |
| AGTTGTAG | -0.153 |
| GCTGCGCA | 0.101 |
| CGTCCACC | -0.0398 |
| AAAACAAT | 0.131 |
| CTCTCAAA | -0.163 |
| AAGCTGGT | 0.0448 |
| TGAAGCCA | -0.208 |
| ATAACAGC | -0.0612 |
| CCACGTTC | 0.00025 |
| ATTGCTTG | -0.156 |
| GGTAAGGA | -0.294 |
| GCGAGCGC | 0.147 |
| GCACTCAC | -0.0842 |
| GGCTTAAA | 0.0305 |
| CATTGGGC | -0.245 |
| ATCCTTCA | -0.0778 |
| GACTTCAC | 0.038 |
| GCGTTTTA | -0.0458 |
| CACGATAC | 0.00828 |

| Sequence | PBM E-score |
| --- | --- |
| AATTAAAT | 0.0294 |
| CAGCCGAG | 0.129 |
| CCATTTCC | 0.241 |
| AGACTCCA | -0.123 |
| AAGTACCA | -0.0226 |
| TATAGGCA | -0.171 |
| TAGTTGAA | 0.00489 |
| TCACGCCA | -0.033 |
| GTCCAAGA | -0.16 |
| AATAATAA | 0.0462 |
| AGGGTCCC | 0.0499 |
| ATCCCTGA | -0.138 |
| GCGAAGCC | -0.156 |
| CCGAAAAG | 0.12 |
| GTTCGACA | 0.0381 |
| AGCTTTGG | -0.231 |
| AAACAGAT | -0.147 |
| ACGTAATG | -0.044 |
| CTGTCTCA | -0.142 |
| CAATATCC | 0.226 |
| CCGGCTCC | 0.345 |
| AGGGCCAC | -0.179 |
